Test results taken from ChEMBL document CHEMBL1152384, “First steps in the direction of synthetic, allosteric, direct inhibitors of thrombin and factor Xa” (Bioorg Med Chem Lett, 2009).

Tested on: COc1cc2c(C(=O)O)c(C)oc2cc1OS(=O)(=O)O
Assay: Inhibition of human factor 10a assessed as initial rate of S-2772 hydrolysis at 2.6 mM by Michaelis-Menten analysis

Question: “Coagulation factor X (Homo sapiens) (letters omitted)” was tested. Which Km did it give?
Answer: The Km was 61 µM.

Question: What about the Vmax of the same substance?
Answer: Its Vmax is 54 mAU/min.
